Measurements published in publication PMC2808332.
Results are given in words; binding and its absence hold for the method and conditions named. Some entries that bind do so weakly or less than the wild type. For some of these results: Where a sequence is shown, tags or fusion partners need not be part of it.

Experiments:
Test in all cases: peptide or protein array; Invitrogen Protoarray v4.0, about 8,400 human proteins spotted on nitrocellulose-coated glass slides; 10 µg biotinylated tag-free NEMO in 120 µl probing buffer (PBS, 0.5 mM DTT, 5 mM MgCl2, 5% glycerol, 0.05% Triton X-100), 4°C, 1.5 h; bound NEMO detected with labelled streptavidin; hits Z-score > 3, hits of the biotin-GST control array subtracted; both purified
[1] = target: T1, Chromosome 19 open reading frame 57 (human) (UniProt Q0VDD7)
T1 sequence: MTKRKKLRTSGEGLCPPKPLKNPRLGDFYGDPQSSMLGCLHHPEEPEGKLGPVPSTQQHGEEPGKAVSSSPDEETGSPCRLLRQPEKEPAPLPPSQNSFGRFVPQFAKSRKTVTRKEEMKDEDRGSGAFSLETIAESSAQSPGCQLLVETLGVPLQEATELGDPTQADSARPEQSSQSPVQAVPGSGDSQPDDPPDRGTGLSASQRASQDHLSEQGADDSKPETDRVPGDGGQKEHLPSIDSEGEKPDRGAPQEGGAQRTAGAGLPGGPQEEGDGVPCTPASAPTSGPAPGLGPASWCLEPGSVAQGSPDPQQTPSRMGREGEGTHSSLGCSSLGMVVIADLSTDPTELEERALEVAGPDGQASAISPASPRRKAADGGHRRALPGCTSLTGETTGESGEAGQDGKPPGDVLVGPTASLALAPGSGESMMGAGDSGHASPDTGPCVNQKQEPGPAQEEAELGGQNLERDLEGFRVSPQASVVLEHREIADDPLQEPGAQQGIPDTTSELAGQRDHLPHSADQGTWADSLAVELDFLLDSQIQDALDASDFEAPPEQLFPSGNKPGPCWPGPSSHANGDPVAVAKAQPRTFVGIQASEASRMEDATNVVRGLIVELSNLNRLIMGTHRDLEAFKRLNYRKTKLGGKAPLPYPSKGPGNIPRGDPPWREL

LUC7-like 2 (human) = target: T2, LUC7-like 2 (human) (UniProt Q9Y383)
T2 sequence: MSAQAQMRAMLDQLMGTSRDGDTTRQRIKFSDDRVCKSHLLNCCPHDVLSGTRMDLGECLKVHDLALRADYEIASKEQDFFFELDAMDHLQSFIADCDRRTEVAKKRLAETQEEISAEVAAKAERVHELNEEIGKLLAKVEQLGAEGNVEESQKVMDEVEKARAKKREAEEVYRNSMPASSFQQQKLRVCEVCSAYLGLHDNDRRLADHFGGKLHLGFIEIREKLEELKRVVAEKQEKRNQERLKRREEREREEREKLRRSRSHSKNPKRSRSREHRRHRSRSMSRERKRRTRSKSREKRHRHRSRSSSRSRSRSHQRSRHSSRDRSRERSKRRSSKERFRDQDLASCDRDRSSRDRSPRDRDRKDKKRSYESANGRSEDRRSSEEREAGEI

[2] = target: T3, Minichromosome maintenance complex component 10 (human) (UniProt Q7L590)
T3 sequence: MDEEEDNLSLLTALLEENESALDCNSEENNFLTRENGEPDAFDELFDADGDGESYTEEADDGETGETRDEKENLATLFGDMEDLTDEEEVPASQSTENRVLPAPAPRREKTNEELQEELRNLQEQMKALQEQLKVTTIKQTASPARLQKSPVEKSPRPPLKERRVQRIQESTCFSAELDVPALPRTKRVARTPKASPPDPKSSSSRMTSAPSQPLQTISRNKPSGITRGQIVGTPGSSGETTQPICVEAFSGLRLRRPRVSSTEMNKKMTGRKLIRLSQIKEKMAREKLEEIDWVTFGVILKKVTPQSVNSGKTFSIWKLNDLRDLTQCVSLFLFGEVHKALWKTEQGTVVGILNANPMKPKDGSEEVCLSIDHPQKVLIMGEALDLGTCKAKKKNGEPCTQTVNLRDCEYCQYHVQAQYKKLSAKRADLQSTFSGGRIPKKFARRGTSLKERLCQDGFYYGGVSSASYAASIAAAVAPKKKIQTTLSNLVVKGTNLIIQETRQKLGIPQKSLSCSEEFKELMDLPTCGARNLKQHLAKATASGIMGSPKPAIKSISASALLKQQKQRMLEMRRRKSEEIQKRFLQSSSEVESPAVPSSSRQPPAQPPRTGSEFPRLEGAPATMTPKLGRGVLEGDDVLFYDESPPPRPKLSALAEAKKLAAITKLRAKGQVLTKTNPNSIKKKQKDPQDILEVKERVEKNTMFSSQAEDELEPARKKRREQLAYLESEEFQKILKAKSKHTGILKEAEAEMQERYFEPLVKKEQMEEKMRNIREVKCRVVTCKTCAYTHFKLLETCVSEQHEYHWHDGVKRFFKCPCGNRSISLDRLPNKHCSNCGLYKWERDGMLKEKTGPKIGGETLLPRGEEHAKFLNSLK

PNMA-like 1 (human) = target: T4, PNMA-like 1 (human) (UniProt Q86V59)
T4 sequence: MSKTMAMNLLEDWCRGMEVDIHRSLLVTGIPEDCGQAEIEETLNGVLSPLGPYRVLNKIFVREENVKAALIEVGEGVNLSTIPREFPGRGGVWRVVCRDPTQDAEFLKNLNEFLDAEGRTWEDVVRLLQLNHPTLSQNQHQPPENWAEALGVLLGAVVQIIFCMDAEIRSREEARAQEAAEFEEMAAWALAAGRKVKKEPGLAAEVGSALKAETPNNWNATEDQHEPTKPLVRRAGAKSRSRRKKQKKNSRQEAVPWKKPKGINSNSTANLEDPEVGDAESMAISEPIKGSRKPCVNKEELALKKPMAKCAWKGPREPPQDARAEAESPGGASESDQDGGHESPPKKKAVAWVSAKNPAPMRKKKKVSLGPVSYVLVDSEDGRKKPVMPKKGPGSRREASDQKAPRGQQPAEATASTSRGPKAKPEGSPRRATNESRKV

binding [1]: binds | binding (LUC7-like 2 (human)): binds | binding [2]: binds | binding (PNMA-like 1 (human)): binds
Substance: NEMO (NF-κB essential modulator), tag-free, biotinylated (from UniProt Q9Y6K9 1-419)
